Results reported in publication PMC9334274, “A unique class of Zn^2+-binding serine-based PBPs underlies cephalosporin resistance and sporogenesis in Clostridioides difficile” (Nature Communications, 2022).
In brackets after ≈: the same amount, converted by molar mass.

Tested on: C. difficile strain R20291
Test: Minimum inhibitory concentration (MIC) determination
Conditions: for MIC (X): C. difficile R20291, source data Fig. S3, unit not given

Row | Compound | MIC (X) | MIC (C. difficile R20291, BHI, 37 °C, 24 h, mean of three biological replicates) [µg/mL]
1 | CO/N=C(\C(=O)N[C@@H]1C(=O)N2C(C(=O)O)=C(/C=C\c3scnc3C)CS[C@H]12)c1csc(N)n1 [cefditoren] | 16 | –
2 | Nc1nc(/C(=N/O)C(=O)N[C@@H]2C(=O)N3C(C(=O)O)=C(/C=C4\CCN([C@@H]5CCNC5)C4=O)CS[C@H]23)ns1 [ceftobiprole] | 2 | 2 (≈ 3.74 µM)
